In publication PMC6733871:
Numbering of substitutions follows the chain as printed. Names may count otherwise. Results are given in words; binding and its absence hold for the method and conditions named. In cells and extracts the contact can be indirect. Some binding calls cover weakened binding; strength is not graded here. Where a sequence is shown, tags or fusion partners need not be part of it.

T1: TRX1 C35S-SBP-6xHis (Thioredoxin1 trapping mutant) (UniProt P10599)
T1 sequence: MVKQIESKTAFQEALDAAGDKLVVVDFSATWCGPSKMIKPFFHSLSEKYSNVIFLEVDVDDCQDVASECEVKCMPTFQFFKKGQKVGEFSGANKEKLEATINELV

B1: Wildtype (wt) LPL transiently expressed in HEK293 cells (protein, UniProt P13796 1-627)
chain: MARGSVSDEEMMELREAFAKVDTDGNGYISFNELNDLFKAACLPLPGYRVREITENLMATGDLDQDGRISFDEFIKIFHGLKSTDVAKTFRKAINKKEGICAIGGTSEQSSVGTQHSYSEEEKYAFVNWINKALENDPDCRHVIPMNPNTNDLFNAVGDGIVLCKMINLSVPDTIDERTINKKKLTPFTIQENLNLALNSASAIGCHVVNIGAEDLKEGKPYLVLGLLWQVIKIGLFADIELSRNEALIALLREGESLEDLMKLSPEELLLRWANYHLENAGCNKIGNFSTDIKDSKAYYHLLEQVAPKGDEEGVPAVVIDMSGLREKDDIQRAECMLQQAERLGCRQFVTATDVVRGNPKLNLAFIANLFNRYPALHKPENQDIDWGALEGETREERTFRNWMNSLGVNPRVNHLYSDLSDALVIFQLYEKIKVPVDWNRVNKPPYPKLGGNMKKLENCNYAVELGKNQAKFSLVGIGGQDLNEGNRTLTLALIWQLMRRYTLNILEEIGGGQKVNDDIIVNWVNETLREAKKSSSISSFKDPKISTSLPVLDLIDAIQPGSINYDLLKTENLNDDEKLNNAKYAISMARKIGARVYALPEDLVEVNPKMVMTVFACLMGKGMKRV
modifications: oxidised after H2O2 treatment of the cells
B2: wt LPL-FLAG stably expressed in MV3 melanoma cells (protein, UniProt P13796 1-627)
chain: B1 chain
modifications: oxidised (TRX1 knockdown, H2O2 or gamma-irradiation of the cells)
B3: C101A LPL transiently expressed in HEK293 cells (protein, UniProt P13796 1-627)
chain: B1 chain with C101A
B4: C42A LPL transiently expressed in HEK293 cells (protein, UniProt P13796 1-627)
chain: B1 chain with C42A
B5: PRX1, endogenous in PC3 cells (enzyme, UniProt Q06830 1-199)
chain: MSSGNAKIGHPAPNFKATAVMPDGQFKDISLSDYKGKYVVFFFYPLDFTFVCPTEIIAFSDRAEEFKKLNCQVIGASVDSHFCHLAWVNTPKKQGGLGPMNIPLVSDPKRTIAQDYGVLKADEGISFRGLFIIDDKGILRQITVNDLPVGRSVDETLRLVQAFQFTDKHGEVCPAGWKPGSDTIKPDVQKSKEYFSKQK
B6: PRX1, endogenous in MV3 cells (enzyme, UniProt Q06830 1-199)
chain: B5 chain

target: T1, TRX1 C35S-SBP-6xHis (Thioredoxin1 trapping mutant); assay: pull-down; TRX1 kinetic trapping: TRX1-SBP-6xHis on streptavidin sepharose beads incubated 1.5 h at 4 °C with lysates (1% Triton X-100) of cells whose thiols were blocked with NEM; washes with 500 mM NaCl and 1 M urea; eluted with 5 mM biotin; immunoblot under reducing and nonreducing conditions; mixed disulfide (covalent) intermediates; cells treated beforehand with H2O2 (1-100 uM), auranofin, gamma-irradiation (30 or 60 Gy) or TRX1 knockdown; only the target purified

Row | binding | Binder
1 | binds | B1
2 | binds | B2
3 | no binding | B3
4 | binds | B4
5 | binds | B5
6 | binds | B6
